Hit rate of the full screen: of about 310,000 compounds, about 11,000 (3.5%) were called active. This list was built around the results that the source calls inconclusive (neither active nor inactive); the mix of calls is not that of the screen. The call rests on the fitted dose curve; in most records, active means well fitted inhibition curve with a large enough effect; inconclusive means small, poorly fitted or top-dose-only effect, or effect the other way; inactive means flat fitted curve, though single readings scatter. No potency is given beside an inconclusive call; the fits are too rough.
Test: VP16 counterscreen qHTS for inhibitors of ROR gamma transcriptional activity;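 further: Gal4-VP16 expression switched on by copper sulfate through the metallothionein promoter; nearly all actives have a fitted effect of over 50% in size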
Settings: Drosophila S2 Gal4-VP16 UAS-luciferase, luminescence, 20 h; activity, negative = inhibition: at 53.6 µM (top of the series)
For `Cc1cccc(C)c1NC(=O)/C(C#N)=C/c1ccsc1`, the Potency was inconclusive [inhibitor, single point].
In the case of `COc1cc2cc(CN(Cc3cccs3)C(=S)Nc3cccc(C)c3)c(=O)[nH]c2cc1OC`, the Potency is reported as inconclusive [activator, single point].
In the case of `O=C(O)c1ccc(NCc2cccc(Br)c2)cc1`, the Potency is reported as inconclusive [inhibitor, partial curve].
In the case of `Clc1ccc(-c2c[n+](Cc3ccc(Br)cc3)c3n2CCCCC3)cc1`, the Potency is reported as active: 11.2 µM.
In the case of `COc1cc(CC(=O)NC(c2ccccc2)c2ccccc2)cc(OC)c1OC`, the “activity, negative = inhibition” value is reported as inactive: -0.052%.
With `Cc1ccc2nc(-c3ccc(SCC(=O)Nc4cc(C)on4)nc3)[nH]c2c1` the Potency was inconclusive [inhibitor, partial curve].
With `Cc1ccc2nc(-c3ccc4c(c3)OCCO4)cn2c1` the Potency was active: 1.12 µM.
In the case of `Cc1ccc(NC(=O)CN2C(=O)c3ccccc3C2=O)c(C)c1`, the “activity, negative = inhibition” value is reported as inactive: -3.04%.
For `O=C(/C=C/c1cccc([N+](=O)[O-])c1)c1ccco1`, the Potency was inconclusive [inhibitor, single point].
For `CSc1nc2ccccc2c(=O)n1Cc1ccc(F)cc1`, the activity, negative = inhibition was inactive: 7.17% [at 10 µM].
For `O=C1[C@@H]2Cc3c([nH]c4ccccc34)[C@@H](c3ccccc3)N2C(=O)[C@@H]2Cc3c([nH]c4ccccc34)[C@@H](c3ccccc3)N12`, the Potency was inconclusive [inhibitor, single point].
In the case of `COc1cc(OC)c2ccc(=O)oc2c1C(CC(=O)N1CCCC(C)C1)c1ccc2c(c1)OCO2` (stereo not drawn), the “activity, negative = inhibition” value is reported as inactive: 11.1%.
With `CC(=O)N(C)c1ccc(N=Cc2c(O)ccc3ccccc23)cc1` the Potency was inconclusive [inhibitor, single point].
For `O=C(CSc1nnc(SCc2ccccc2)s1)N/N=C/c1c[nH]c2ccccc12`, the Potency was inconclusive [inhibitor, partial curve].
With `Cc1ccc(/C=C/C(=O)N2CC(=O)Nc3ccccc32)o1` the Potency was active: 15.8 µM.
With `O=C(/C(=N\Nc1ccccc1)Sc1nnnn1-c1ccccc1)c1ccccc1` the Potency was inconclusive [inhibitor, partial curve, poor fit].
In the case of `Cc1cccc(C(=O)n2c(=S)nc3cc(C)ccn32)c1`, the Potency is reported as inconclusive [inhibitor, full curve].
For `CCOC(=O)c1nn(-c2ccccc2)cc1O`, the “activity, negative = inhibition” value was inactive: -9.57%.
With `CC(=O)NC(C)c1ccc(Cl)c(Cl)c1` (stereo not drawn) the “activity, negative = inhibition” value was inactive: 3.56%.
For `COc1ccccc1-c1nnc(NC(=O)c2cccc(N3C(=O)CCC3=O)c2)o1`, the Potency was inconclusive [inhibitor, single point].
For `CN(CC(=O)Nc1c(Cl)cccc1Cl)C(=O)CCC1CCCC1`, the Potency was active: 11.2 µM.
For `Cc1cccc2nc(CSc3nc4ccc([N+](=O)[O-])cc4[nH]3)c(Br)n12`, the Potency was inconclusive [inhibitor, single point].
With `Cc1ccc(C(C)C)c(OCC(=O)Nc2sc3c(c2C#N)CC(C)(C)NC3(C)C)c1` the Potency was inconclusive [inhibitor, single point].
For `CS(=O)(=O)N1CCN(c2ccccc2NC(=O)c2ccc(Cl)cc2)CC1`, the “activity, negative = inhibition” value was inactive: -5.58%.
In the case of `O=C(COc1ccc(Cl)cc1)NCc1nnc(SCC(=O)Nc2ccccc2)o1`, the “activity, negative = inhibition” value is reported as inactive: -3.9%.
For `COc1cc(CN2CCN(S(=O)(=O)c3ccccc3)CC2)cc(OC)c1OC`, the “activity, negative = inhibition” value was inactive: 14.3%.
In the case of `O=C(O)CCn1c(-c2ccccc2)cc2c1CCCC2=O`, the Potency is reported as inconclusive [inhibitor, partial curve].
With `COc1c(OC2OC(C(=O)O)C(O)C(O)C2O)cc(O)c2c(=O)cc(-c3ccccc3)oc12` (stereo not drawn) the “activity, negative = inhibition” value was inactive: -7.68%.
For `CCN(CC)CCC(=O)Nc1cccc2c1C(=O)c1ccccc1C2=O`, the Potency was inconclusive [inhibitor, single point].
With `CCNC(=S)N/N=C(\C)c1cccc(C(F)(F)F)c1` the Potency was active: 4.47 µM.
For `Cc1cccc(N2CN(Cc3ccco3)CNC2=S)c1C`, the Potency was active: 11.2 µM.
With `C[C@H](NC(=O)/C(C#N)=C/c1ccc(O)c(O)c1)c1ccccc1` the Potency was inconclusive [inhibitor, single point].
For `Nc1nc2c(nc(Sc3ccc(Cl)cc3)n2C2OC(CO)C(O)C2O)c(=O)[nH]1` (stereo not drawn), the “activity, negative = inhibition” value was inactive: -0.697%.
In the case of `Cc1ccc(NCCC(=O)c2cccc([N+](=O)[O-])c2)c(C)c1`, the Potency is reported as inconclusive [inhibitor, single point].
In the case of `Cc1ccc(/C=N/Nc2ccccn2)s1`, the Potency is reported as active: 11.2 µM.
With `Nc1ccc2nc(-c3ccc(N)c(Cl)c3)[nH]c2c1` the Potency was inconclusive [inhibitor, single point].
For `CC(C)Oc1cccc(C(=O)Nc2ccccc2N2CCOCC2)c1`, the Potency was inconclusive [inhibitor, single point].
In the case of `CCOC(=O)CSC1=NC(=O)/C(=C/c2ccc(OC)cc2)S1`, the Potency is reported as inconclusive [activator, partial curve].
In the case of `Cc1nnc(NC(=O)c2ccc(S(=O)(=O)N3CCCCCC3)cc2)o1`, the Potency is reported as active: 1.26 µM.
With `CCOc1ccc2nc(NC3=NC(c4ccc(OC)cc4)CC(=O)N3)nc(C)c2c1` (stereo not drawn) the Potency was inconclusive [inhibitor, partial curve, poor fit].
With `Cn1c(=O)c2c(nc(NCc3ccco3)n2CCc2ccccc2)n(C)c1=O` the Potency was active: 7.94 µM.
In the case of `Nc1n[nH]c(C2CC2)c1N=Nc1ccc(Cl)cc1`, the Potency is reported as inconclusive [activator, partial curve].
For `COc1ccc(CC(=O)N(c2ccccc2)c2nc(C)cs2)cc1`, the Potency was inconclusive [activator, single point].
In the case of `CC(C)Cc1ccccc1S(N)(=O)=O`, the “activity, negative = inhibition” value is reported as inactive: 5.68%.
With `O=[N+]([O-])c1ccc(N2CCN(c3ccc([N+](=O)[O-])cc3CO)CC2)c(CO)c1` the Potency was active: 6.31 µM.
With `NCCOc1ccc(C23CC4CC(CC(C4)C2)C3)cc1` the Potency was inconclusive [inhibitor, single point].
With `N#C/C(=C(/O)COC(=O)COc1ccc(Cl)cc1)c1nc2ccccc2[nH]1` the Potency was active: 12.6 µM.
With `Cc1ccc(SCCSc2nc(N)cc(=O)[nH]2)cc1` the Potency was inconclusive [inhibitor, partial curve, poor fit].
In the case of `O=C(N/N=C/c1cc2cc3c(cc2nc1Cl)OCCO3)c1ccccc1O`, the Potency is reported as inconclusive [inhibitor, single point].
With `C=CCOc1ccc(C(=O)N(Cc2ccc(N(C)C)cc2)C2CCS(=O)(=O)C2)cc1` (stereo not drawn) the “activity, negative = inhibition” value was inactive: 4.29%.
In the case of `Nc1ccc(C(=O)NC2CCSc3ccccc32)cc1[N+](=O)[O-]` (stereo not drawn), the Potency is reported as active: 7.94 µM.
In the case of `CCNC(=S)N/N=C/c1cccc(OCc2c(F)cccc2Cl)c1`, the Potency is reported as active: 0.708 µM.
In the case of `CCn1cc(C(=O)Nc2ccc(OC)c(S(=O)(=O)N3CCCCC3)c2)c(=O)c2ccc(C)nc21`, the “activity, negative = inhibition” value is reported as inactive: -10.9%.
For `CCC(=C(c1ccc(OC)cc1)c1ccc(OC)cc1)c1cn(CC(O)CN2CCN(C)CC2)c2ccccc12` (stereo not drawn), the Potency was inconclusive [inhibitor, single point].
In the case of `CC(=O)N/C(=N\c1nc(C)cc(C)n1)Nc1ccc2ccccc2c1`, the Potency is reported as inconclusive [inhibitor, single point].
In the case of `CC(C)(C)C(=O)NC(=S)Nc1ccccc1N1CCCC1`, the Potency is reported as inconclusive [inhibitor, single point].
With `Cc1ccc(C(=O)N2CCc3ccccc32)cc1` the Potency was inconclusive [activator, single point].
In the case of `Cc1ccc(Cl)cc1NC(=S)N(Cc1cccs1)C1CCCC1`, the Potency is reported as inconclusive [inhibitor, single point].
With `Cc1cccc2sc(N(CCCN(C)C)C(=O)c3nc4ccccc4s3)nc12` the Potency was inconclusive [inhibitor, single point].
In the case of `CCc1cccc2nc3c(c([Si](CC)(CC)CC)c12)Cn1c-3cccc1=O`, the Potency is reported as inconclusive [inhibitor, single point].
With `Cc1cccc(C(=O)NC(C(=O)Nc2nc(-c3ccccn3)cs2)C(C)C)c1` (stereo not drawn) the Potency was inconclusive [inhibitor, single point].
In the case of `Cc1ccc(CNCC(O)(c2ccccc2)c2ccc(Cl)cc2)cc1` (stereo not drawn), the Potency is reported as inconclusive [inhibitor, single point].
For `CCOC(=O)C1C(=O)C=C(/C=C/c2ccccc2)CC1c1ccc(Cl)cc1` (stereo not drawn), the “activity, negative = inhibition” value was inactive: -8.12%.
With `COc1ccc(OC)c(C2C(C(=O)Nc3nc4ccccc4s3)=C(C)NC3=C2C(=O)CCC3)c1` (stereo not drawn) the Potency was inconclusive [inhibitor, partial curve].
In the case of `O=C(CCc1ccccc1)NC(=S)Nc1ccccc1Br`, the Potency is reported as inconclusive [inhibitor, single point].
In the case of `O=C(CCCc1ccccc1)NCc1ccc(Cl)cc1`, the “activity, negative = inhibition” value is reported as inactive: -0.345%.
In the case of `CC1Cc2cc(/C(O)=C3/C(=O)C(=O)N(CCCn4ccnc4)C3c3ccco3)ccc2O1` (stereo not drawn), the “activity, negative = inhibition” value is reported as inactive: 1.68%.
In the case of `COc1ccc(CC(=O)Nc2nc(-c3cccnc3)cs2)cc1`, the “activity, negative = inhibition” value is reported as inactive: -1.05%.
In the case of `Cc1sc2ncn(CC(=O)NCC(=O)N(C)C3CCCCC3)c(=O)c2c1C`, the Potency is reported as inconclusive [inhibitor, single point].
With `C(=N\Nc1nc2ccccc2[nH]1)/c1cccc2cccnc12` the Potency was active: 2.24 µM.
With `Cn1c(=O)c([N+](=O)[O-])c(N2CCSCC2)c2ccccc21` the Potency was inconclusive [inhibitor, single point].
In the case of `Oc1c(Cl)cc(Cl)cc1/C=N/c1nccs1`, the Potency is reported as inconclusive [inhibitor, single point].
For `Cc1cc(C)n(-c2ccc3cccc(NS(C)(=O)=O)c3n2)n1`, the Potency was inconclusive [inhibitor, single point].

From PubChem BioAssay AID2546 (National Center for Advancing Translational Sciences (NCATS), 2010)
On the % scale 0 is the no-effect control and ±100 the full control effect; potency means the concentration at half of the fitted maximal effect; tags describe the fitted curve by direction and shape.
